Data from PubChem BioAssay AID624417 (National Center for Advancing Translational Sciences (NCATS), 2012).
The whole screen tested about 410,000 compounds, of which about 6,400 (1.6%) were called active. The shares of active, inactive and inconclusive entries below differ from those in the screen. Calls follow the shape of the dose curve; as a rule, active = well fitted inhibition curve with a large enough effect; inconclusive = small, poorly fitted or top-dose-only effect; inactive = no such curve, though single readings can be large or run the other way. A potency beside an inconclusive call is a rough fit, not a confirmed value.

Biological target: Glucagon-like peptide 1 receptor (Homo sapiens) (UniProt P43220)
Chain of UniProt P43220 (P43220 whole entry, looked up): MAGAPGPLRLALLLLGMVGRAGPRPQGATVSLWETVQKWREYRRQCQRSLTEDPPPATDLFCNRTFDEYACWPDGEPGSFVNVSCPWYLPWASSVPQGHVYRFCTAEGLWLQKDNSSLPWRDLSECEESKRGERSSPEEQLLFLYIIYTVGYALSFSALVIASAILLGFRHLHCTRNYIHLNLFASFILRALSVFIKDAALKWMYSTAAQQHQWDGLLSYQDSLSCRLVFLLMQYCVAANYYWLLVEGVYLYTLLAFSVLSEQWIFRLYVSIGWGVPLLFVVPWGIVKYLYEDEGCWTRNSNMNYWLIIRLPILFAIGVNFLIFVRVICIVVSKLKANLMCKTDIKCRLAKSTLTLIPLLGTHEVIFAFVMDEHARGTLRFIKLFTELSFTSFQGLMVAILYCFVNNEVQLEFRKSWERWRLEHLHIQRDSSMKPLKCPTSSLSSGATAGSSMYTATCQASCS
Assay: qHTS of GLP-1 Receptor Inverse Agonists (Inhibition Mode); also: nearly all actives have a fitted effect of over 55% in size
Details: HEK293 GLP-1R CRE-luciferase, luminescence, 24 h, GLP-1R form is constitutively active; activity change, negative = inhibition: at 38.3 µM (top of the series) unless noted
Method in brief: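 Stable HEK293 clone (constitutively active GLP-1R + cAMP-response luciferase); 200 cells/uL plated, 12 h pre-culture, compound 24 hr, 37 deg C/5% CO2; detection reagent 12 min RT; luminescence.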
% is scaled to controls: 0 for no effect and ±100 for the full control effect; potency is read from the fitted curve at half-maximal effect; tags tell the direction and shape of the fitted curve.

Potency, active:
CCN1CCN(C(=O)Cn2nc(-c3ccc(Cl)cc3)ccc2=O)CC1 2.82 µM
Cc1ccc(C)c(C(=O)CCC(=O)NCc2ccc(Cl)cc2)c1 10 µM

Potency, inconclusive:
Cc1cccc(-n2ccnc2SCC(=O)Nc2nc3ccccc3s2)c1 8.91 µM [inhibitor, partial curve, poor fit]
COC(=O)CCc1sc(NC2CCCCC2)nc1-c1ccc(OC)cc1 28.2 µM [inhibitor, single point]
Cc1ccc(OCCSc2ncccn2)c(C)c1 28.2 µM [inhibitor, single point]
Cc1ccc(C(=O)N(Cc2ccc(N(C)C)cc2)Cc2ccco2)cc1 22.4 µM [inhibitor, single point]
O=S(=O)(Cc1ccccc1)C(CCCc1ccccc1)S(=O)(=O)Cc1ccccc1 22.4 µM [inhibitor, single point]
CCC(C)[C@H](NC(=O)N1CCn2c1nc1ccccc12)C(=O)NCCc1ccccc1 (some centres undefined) 11.2 µM [inhibitor, partial curve, poor fit]
COc1ccccc1/C=C/C=N\N1CCN(Cc2ccccc2Cl)CC1 10 µM [inhibitor, partial curve]
O=C(Nc1ccc([N+](=O)[O-])cc1)Nc1ccon1 0.316 µM [inhibitor, full curve, poor fit]
CCCCNC(=S)N/N=C/C1=CCC2CC1C2(C)C (centres undefined) 2.82 µM [inhibitor, single point]
COc1ccccc1-c1oc2ccccc2c1C#CC1(O)CCCCC1 14.1 µM [inhibitor, single point]
Cc1ccc([N+](=O)[O-])cc1NC(=O)Nc1cccc(F)c1 8.91 µM [inhibitor, partial curve, poor fit]
CN(c1ccccc1)S(=O)(=O)c1ccc(Cl)c(C(=O)NCC(c2ccco2)N2CCCC2)c1 (centres undefined) 12.6 µM [inhibitor, single point]
O=C(NCCc1ccc(Cl)cc1)c1ccc(CS(=O)Cc2cccc(Cl)c2)o1 (centres undefined) 28.2 µM [inhibitor, single point]
O=C(Nc1ccc(N2CCCCC2)cc1)c1ccccc1 7.08 µM [inhibitor, partial curve, poor fit]
Cc1ccc(OCCn2cc(C(=S)N3CCCC3)c3ccccc32)cc1C 6.31 µM [inhibitor, partial curve, poor fit]
CN(C)c1c2ccccc2nc2c(F)c(F)c(F)c(F)c12 14.1 µM [inhibitor, single point]
O=C(Nc1cccc(-c2cc3ccccc3oc2=O)c1)c1ccc(Br)o1 8.91 µM [inhibitor, partial curve, poor fit]
Cn1c(SCc2c(Cl)cccc2Cl)nnc1-c1ccc2nonc2c1 28.2 µM [inhibitor, single point]
CN(Cc1cccnc1)Cc1cn(Cc2ccccc2)nc1-c1ccc2c(c1)OCO2 31.6 µM [inhibitor, single point]
Cc1ccc(-c2ccc(CN3C(C)C(=O)N(Cc4cn(Cc5ccco5)nn4)CCS3(=O)=O)cc2)cc1 (centres undefined) 14.1 µM [inhibitor, single point]
O=C(O)c1ccc(NC(=O)c2cn(-c3ccccc3)nc2-c2cccc(Cl)c2)cc1 5.01 µM [inhibitor, full curve, poor fit]
CCCCCCCCN1C(=O)[C@H](CC(=O)N2CCN(C(=O)OCC)CC2)C[C@@]2(C(=O)OCC)CCCC=C12 11.2 µM [inhibitor, single point]
O=C(Nc1cc([N+](=O)[O-])ccc1Cl)C(Sc1ccccc1)c1ccccc1 (centres undefined) 11.2 µM [inhibitor, partial curve, poor fit]
COc1ccc(OC)c(CN2CCCC(C(=O)c3ccccc3SC)C2)c1 (centres undefined) 8.91 µM [inhibitor, partial curve, poor fit]
CN(c1ccc(Cl)cc1)S(=O)(=O)c1nnc(NC(=O)C2CCCCC2)s1 7.94 µM [inhibitor, partial curve, poor fit]
CCOC(=O)C(NC(=O)c1ccccc1)=C1CCCCC1 20 µM [inhibitor, single point]
Cc1nn(C)c(C)c1S(=O)(=O)N1CCCC(C(=O)N2CCN(c3ccc(Cl)cc3)CC2)C1 (centres undefined) 10 µM [inhibitor, partial curve, poor fit]
CC1CCN(c2ccccc2NC(=S)NC(=O)c2cccs2)CC1 3.55 µM [inhibitor, partial curve, poor fit]
CC(C)(C)NC(=S)N/N=C/c1cccnc1 28.2 µM [inhibitor, single point]
O=S(=O)(NC1CCCCC1N1CCOCC1)c1ccc(Cl)cc1 (centres undefined) 31.6 µM [inhibitor, single point]
COc1ccc(OC)c(CN2CCN(C(=O)c3cccc(S(=O)(=O)Nc4ccc(F)cc4)c3)CC2)c1 3.16 µM [inhibitor, partial curve, poor fit]
O=C(NC(=S)Nc1cccc(Cl)c1N1CCCC1)c1ccc(-c2cccc([N+](=O)[O-])c2)o1 0.501 µM [inhibitor, full curve, poor fit]
Cc1ccc(COc2ccc(Br)cc2/C=N/O)cc1 28.2 µM [inhibitor, single point]
CC1(C)Cc2ccccc2-c2nc(NCCO)n(-c3ccccc3)c(=O)c21 12.6 µM [inhibitor, single point]
CCOC(=O)N1CCC(NC(=O)c2ccc3c(c2)N=C(C)c2c(C)ccc(C)c2S3)CC1 1 µM [inhibitor, full curve, poor fit]
COC(=O)[C@@]1(Cc2ccccc2)[C@H]2C(=O)N(Cc3ccccc3)C(=O)[C@H]2[C@H]2CN=C(SCC3CC3)N21 28.2 µM [inhibitor, single point]
CN(Cc1cc(Cl)cc(Cl)c1)CC(C(=O)c1ccccc1)c1ccccc1 (centres undefined) 12.6 µM [inhibitor, partial curve, poor fit]
C[C@@H]1C(c2ccccc2)=NN(c2ccc(Br)cc2)[C@H]1C(=O)N1CCOC1=O 11.2 µM [inhibitor, single point]
c1ccc(CNc2nc(-c3cccs3)nc3ccccc23)nc1 28.2 µM [inhibitor, single point]
COc1ccc(-c2noc(CN(C)CCC3CCCCO3)n2)cc1 (centres undefined) 12.6 µM [inhibitor, single point]
O=C(NC1CC1)C1=NOC(CNc2ncc(C(F)(F)F)cc2Cl)C1 (centres undefined) 28.2 µM [inhibitor, single point]
O=C(NNc1ccc(Cl)cc1)c1c(F)cccc1Cl 1 µM [inhibitor, full curve, poor fit]
CCOc1ccc(CNC(=O)CCC(=O)N2CC(C)Sc3ccccc32)cc1 (centres undefined) 12.6 µM [inhibitor, single point]
CN(CC(=O)Nc1ccccc1[N+](=O)[O-])Cc1ccc(Br)cc1 0.501 µM [inhibitor, full curve, poor fit]
CCn1c2ccccc2c2nnc(SCCN3CCCCC3)nc21 28.2 µM [inhibitor, single point]
CCNc1nc(NCC)nc(N(C)N)n1 10 µM [inhibitor, single point]
S=c1[nH]nc(CSCc2ccccc2Cl)n1C1CCCCC1 25.1 µM [inhibitor, single point]
CC(C)OC(=O)Cn1nc(C(c2ccccc2)c2ccccc2)oc1=O 12.6 µM [inhibitor, single point]
COc1ccc(N2CCN(CCNC(=O)Nc3cc(Cl)ccc3OC)CC2)cc1 11.2 µM [inhibitor, partial curve, poor fit]
COc1ccccc1Oc1cc(-n2nc(C)cc2C)ncn1 3.55 µM [inhibitor, partial curve, poor fit]

Activity change, negative = inhibition, inactive:
Cc1ccc(NC(=O)CCC(=O)c2cccs2)cc1F 0.311%
Cn1c(=O)c2cc(C(=O)N3CCN(c4ccc(Cl)cc4)CC3)sc2c2ccccc21 -0.72%
Cc1ccc(C(=O)OCC(=O)Nc2c(C)nn(-c3ccccc3)c2C)c(O)c1 20.8%
CCCCCC(=O)N(O)C1CC(=O)N(c2ccccc2)C1=O (centres undefined) 3.63%
CCOc1ccc(NS(=O)(=O)c2ccc(C(=O)NCC3CCCO3)cc2)cc1 (centres undefined) 12%
S=c1[nH]nc(-c2ccncc2)n1/N=C/c1cn(-c2ccccc2)nc1-c1ccccc1 9.7%
COc1cccc(NC(=O)C2(C)CCCN2C(=O)C(C)C)c1OC (centres undefined) 14.2%
O=C1/C(=C\c2ccco2)CCC/C1=C\c1ccco1 34.2%
COC(=O)c1ccc(CNC(=O)c2ccccc2C(=O)NCC2(CBr)OCCO2)cc1 9%
CC1(C(=O)Nc2ccc3c(c2)OCCO3)CCN1C(=O)CC1CCCC1 (centres undefined) -17.6%
N#Cc1ccc(N2C(=O)[C@@H]3C(C(=O)c4cnccn4)=NN[C@@H]3C2=O)cc1 0.767%
O=C(CCl)Nc1nc(-c2ccco2)c(-c2ccco2)s1 68%
